This is an account of results in paper PMC5892938.

Some of the results follow. At the low end of the ranking, values are background and their order means little.

The assay deals with GST-SBP-SLBP (stem-loop binding protein) (UniProt Q14493). Kind of assay: targeted RNA Bind-n-Seq.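 Note: DESeq read counts versus GST-SBP nonspecific binding control pulldown.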 The settings on record: RBNS binding buffer: 25 mM Tris pH 7.5, 150 mM KCl, 3 mM MgCl2, 0.1% Tween, 0.5 mg/mL BSA, 1 mM DTT; 27 nM protein, 750 pM RNA pool; temperature not stated; high values mean tight binding.
For “GGUCACGUCUCAAUCAACUCUUUUUCCAGGGAAACCCCUGGUUUUCUCAACAGCUCGCAGUCAAG”, the binding signal (log2 fold change) was -0.0114.

As for “GGUCACGUCUCAAUCAACUCUUCCCCCAGGGAAAUCCCUGGUUAACUCAACAGCUCGCAGUCAAG”, the binding signal (log2 fold change) is -0.173.

In the case of “GGUCACGUCUCAAUCAACUCUAGUCCAGGAGUUUCCUCCUGCAAUUUCAACAGCUCGCAGUCAAG”, the binding signal (log2 fold change) was -0.0796.

For the sequence “GGUCACGUCUCAAUCAACUCUAUUUCCAGGGAAACCCCUGGCUUUCUCAACAGCUCGCAGUCAAG”, the binding signal (log2 fold change) was determined as 0.0364.

With “GGUCACGUCUCAAUCAACUCAUUCCCCAGGGAAAUCCCUGGUAAUCUCAACAGCUCGCAGUCAAG”, the binding signal (log2 fold change) was determined as 0.273.

On to “GGUCACGUCUCAAUCAACUCUUUCUCAGGAGUUUCCUCCUGUUUUCUCAACAGCUCGCAGUCAAG”, for which the binding signal (log2 fold change) is 0.131.

As for “GGUCACGUCUCAAUCAACUCUUCCUCCAGGGAAACCCCUGGUUAUUUCAACAGCUCGCAGUCAAG”, the binding signal (log2 fold change) was found to be 0.102.

As for “GGUCACGUCUCAAUCAACUCUUUUCCAGGAGUUUUCUCCUGUUAUUUCAACAGCUCGCAGUCAAG”, the binding signal (log2 fold change) is 0.0118.

“GGUCACGUCUCAAUCAACUCUAAAGAGGGGGGGAAAACCCCUUUGCCCUCGUAAUCAACAGCUCGCAGUCAAG”: the binding signal (log2 fold change) is 0.191.

As to “GGUCACGUCUCAAUCAACUCUUUCUCAGGAGUUUACUCCUGCUUACUCAACAGCUCGCAGUCAAG”, the binding signal (log2 fold change) is 0.0931.

With “GGUCACGUCUCAAUCAACUCUAUUUCAGGAGUUUCCUCCUGCAUACUCAACAGCUCGCAGUCAAG”, the binding signal (log2 fold change) is -0.0899.

With “GGUCACGUCUCAAUCAACUCUUUCCCCAGGGAAAUCCCUGGUAAUUUCAACAGCUCGCAGUCAAG”, the binding signal (log2 fold change) was -0.172.

On to “GGUCACGUCUCAAUCAACUCAACUUCAGGAGUUUGCUCCUGUAUUUUCAACAGCUCGCAGUCAAG”, for which the binding signal (log2 fold change) is -0.0305.

In the case of “GGUCACGUCUCAAUCAACUCUUCCUCCAGGGAAAUCCCUGGUAAUGUCAACAGCUCGCAGUCAAG”, the binding signal (log2 fold change) is 0.0479.

As to “GGUCACGUCUCAAUCAACUCUAUUCCAGGAGUUUACUCCUGUAAAUUCAACAGCUCGCAGUCAAG”, the binding signal (log2 fold change) was -0.128.

On to “GGUCACGUCUCAAUCAACUCAUACGAGGGGGGGAAAACCCCUUUACCCUCUUCAUCAACAGCUCGCAGUCAAG”, for which the binding signal (log2 fold change) is -0.118.

In the case of “GGUCACGUCUCAAUCAACUCUACUCCAGGAGUUUCCUCCUGUAAAUUCAACAGCUCGCAGUCAAG”, the binding signal (log2 fold change) amounted to 0.0186.

In the case of “GGUCACGUCUCAAUCAACUCCACAGAGGGGGGGAAAACCCCUUUACCCUCAAAUUCAACAGCUCGCAGUCAAG”, the binding signal (log2 fold change) was -0.399.

In the case of “GGUCACGUCUCAAUCAACUCUAUCUCAGGAGUUUACUCCUGCUAUUUCAACAGCUCGCAGUCAAG”, the binding signal (log2 fold change) was -0.0969.

Take “GGUCACGUCUCAAUCAACUCAAUCCCCAGGGAAAGCCCUGGCAAACUCAACAGCUCGCAGUCAAG”: the binding signal (log2 fold change) was found to be 0.159.

“GGUCACGUCUCAAUCAACUCCCCGGAGGGGGGGAAAACCCCUUUACCCUCACUAUCAACAGCUCGCAGUCAAG”: the binding signal (log2 fold change) is -0.282.

As for “GGUCACGUCUCAAUCAACUCUUCGUCAGGAGUUUCCUCCUGCUAUUUCAACAGCUCGCAGUCAAG”, the binding signal (log2 fold change) is -0.0998.

For the sequence “GGUCACGUCUCAAUCAACUCAAUUUCAGGAGUUUACUCCUGCAUUCUCAACAGCUCGCAGUCAAG”, the binding signal (log2 fold change) was -0.0242.

Consider “GGUCACGUCUCAAUCAACUCUUUCCCCAGGGAAACCCCUGGUUUAUUCAACAGCUCGCAGUCAAG”, for which the binding signal (log2 fold change) was -0.00629.

Consider “GGUCACGUCUCAAUCAACUCCACGGAGGGGGGGAAAACCCCUUUACCCUCAUAUUCAACAGCUCGCAGUCAAG”, for which the binding signal (log2 fold change) is -0.00909.

For the sequence “GGUCACGUCUCAAUCAACUCAUUCCCCAGGGAAAUCCCUGGUUUUCUCAACAGCUCGCAGUCAAG”, the binding signal (log2 fold change) was 0.0115.

Consider “GGUCACGUCUCAAUCAACUCUUCUCCCAGGGAAAUCCCUGGCUAUCUCAACAGCUCGCAGUCAAG”, for which the binding signal (log2 fold change) turned out to be 0.0869.

Consider “GGUCACGUCUCAAUCAACUCUUCCCCAGGAGUUUCCUCCUGCUAAUUCAACAGCUCGCAGUCAAG”, for which the binding signal (log2 fold change) turned out to be 0.09.

As for “GGUCACGUCUCAAUCAACUCUAUCGCAGGAGUUUCCUCCUGGUUUUUCAACAGCUCGCAGUCAAG”, the binding signal (log2 fold change) is -0.0427.

On to “GGUCACGUCUCAAUCAACUCAUUUUCAGGAGUUUGCUCCUGUAUACUCAACAGCUCGCAGUCAAG”, for which the binding signal (log2 fold change) worked out at 0.0737.

For “GGUCACGUCUCAAUCAACUCUUCUCCAGGAGUUUUCUCCUGCAAAUUCAACAGCUCGCAGUCAAG”, the binding signal (log2 fold change) was -0.0221.

Take “GGUCACGUCUCAAUCAACUCAAUCCCAGGAGUUUCCUCCUGCUAUUUCAACAGCUCGCAGUCAAG”: the binding signal (log2 fold change) was 0.166.

With “GGUCACGUCUCAAUCAACUCAUUUUCCAGGGAAACCCCUGGUAUACUCAACAGCUCGCAGUCAAG”, the binding signal (log2 fold change) was found to be 0.152.

For “GGUCACGUCUCAAUCAACUCCCAAGAGGGGGGGAAAACCCCUUUGCCCUCAAAAUCAACAGCUCGCAGUCAAG”, the binding signal (log2 fold change) is -0.299.

For “GGUCACGUCUCAAUCAACUCUUUUCCCAGGGAAACCCCUGGUAUACUCAACAGCUCGCAGUCAAG”, the binding signal (log2 fold change) is 0.26.

As to “GGUCACGUCUCAAUCAACUCAAGUCCAGGAGUUUACUCCUGUUUAUUCAACAGCUCGCAGUCAAG”, the binding signal (log2 fold change) was -0.0207.

As for “GGUCACGUCUCAAUCAACUCAACGGAGGGGGGGAAAACCCCUUUACCCUCACAUUCAACAGCUCGCAGUCAAG”, the binding signal (log2 fold change) is -0.437.

For “GGUCACGUCUCAAUCAACUCAAUCCCAGGAGUUUCCUCCUGUAUAGUCAACAGCUCGCAGUCAAG”, the binding signal (log2 fold change) worked out at 0.177.
